{"source": "the supplement of paper PMC8728848", "binders": {"B1": {"name": "CvGal2 (Crassostrea virginica) (protein)", "chain": "MGSSHHHHHHSSGLVPRGSHMRIREAGKRKDTTKVYQIPDGLFPGQQVMLRGRVPWGSKSFSINFSATPRMGEGDILFHLNPRPSEGVCIRNALLNGSWGAEEKWQPYFPFDDGRSFSVKIEVTNDAFRTFVNGRPFVDFLHRTDFRAGKYLTLREGAEYYDVIFQSKPNIPLTTAIHNGMRIGKTIRIRGMCTAQDGFAINFNDNRNNIYFHFNARPAQRTVVRNSYFGSWGNEETAISKEFPFYPFLYFYASFVCMEDKFAVYVNDEHFIDFAHRGNPNNISVLQIKGSVNVLDTECLEPMGEDAMTEVDSGLENGDLFVLNGLMTERGKTFAVNFLNGFTENDDIALHFNPRKSTGEVVLNSRYGGAWQSEEKVALPGVFWSNRPLQVKVETKRNKFKIYVNGVDLAKYKIRGNVEDVHAVQVKGDVFLLETLLLKRLMKPVWERLTGGIRPGTWVTLQGTPKKNWQQFVVNFALDDTLDGDIAFHFNVRRGARQVVRNHRQSGAWGREETVTPFFAFDSEATFEIVFFVKEEKFLIYFNGKLFFEFVHRVPVERITHIYMDGDCNFYEPEVVI"}}, "experiment_in_all_cases": "glycan array binding signal (z-score within array); higher = stronger binding", "settings_in_all_cases": "glycan notation: IUPAC condensed, linker removed", "key": {"[1]": {"biological_target": "Fuc(a1-2)Gal(b1-4)GlcNAc(b1-3)Gal(b1-4)GlcNAc(b1-2)Man(a1-3)[Fuc(a1-2)Gal(b1-4)GlcNAc(b1-3)Gal(b1-4)GlcNAc(b1-2)Man(a1-6)]Man(b1-4)GlcNAc(b1-4)GlcNAc", "method_in_brief": "(§1)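 Glycan array data came from 3228 arrays in the Consortium for Functional Glycomics database, and only arrays with an available protein sequence were kept. Glycan names were put into IUPAC-condensed notation, and columns mapping to the same glycan were averaged. The binding signal is a within-array Z-score, averaged across arrays of one protein sequence run at different concentrations or buffers and across linkers. A negative Z-score can be read as non-binding.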"}, "[2]": {"biological_target": "Fuc(a1-2)Gal(b1-4)GlcNAc(b1-3)Gal(b1-4)GlcNAc(b1-3)Gal(b1-4)GlcNAc", "method_in_brief": "as §1"}, "[3]": {"biological_target": "Fuc(a1-2)Gal(b1-4)GlcNAc(b1-3)GalNAc", "method_in_brief": "as §1"}, "[4]": {"biological_target": "Fuc(a1-2)Gal(b1-4)GlcNAc(b1-3)[Fuc(a1-2)Gal(b1-4)GlcNAc(b1-6)]GalNAc", "method_in_brief": "as §1"}, "[5]": {"biological_target": "Fuc(a1-2)Gal(b1-4)GlcNAc(b1-3)[Fuc(a1-3)[Gal(b1-4)]GlcNAc(b1-6)]Gal(b1-4)Glc", "method_in_brief": "as §1"}, "[6]": {"biological_target": "Fuc(a1-2)Gal(b1-4)GlcNAc(b1-6)GalNAc", "method_in_brief": "as §1"}, "[7]": {"biological_target": "Fuc(a1-2)Gal(b1-4)GlcNAc6S", "method_in_brief": "as §1"}, "[8]": {"biological_target": "Fuc(a1-2)Gal(b1-4)[Fuc(a1-3)]GlcNAc", "method_in_brief": "as §1"}, "[9]": {"biological_target": "Fuc(a1-2)Gal(b1-4)[Fuc(a1-3)]GlcNAc(b1-2)Man(a1-3)[Fuc(a1-2)Gal(b1-4)[Fuc(a1-3)]GlcNAc(b1-2)Man(a1-6)]Man(b1-4)GlcNAc(b1-4)[Fuc(a1-6)]GlcNAc", "method_in_brief": "as §1"}, "[10]": {"biological_target": "Fuc(a1-2)Gal(b1-4)[Fuc(a1-3)]GlcNAc(b1-2)[Fuc(a1-2)Gal(b1-4)[Fuc(a1-3)]GlcNAc(b1-4)]Man(a1-3)[Fuc(a1-2)Gal(b1-4)[Fuc(a1-3)]GlcNAc(b1-2)Man(a1-6)]Man(b1-4)GlcNAc(b1-4)GlcNAc", "method_in_brief": "as §1"}, "[11]": {"biological_target": "Fuc(a1-2)Gal(b1-4)[Fuc(a1-3)]GlcNAc(b1-3)Gal(b1-4)[Fuc(a1-3)]GlcNAc", "method_in_brief": "as §1"}, "[12]": {"biological_target": "Fuc(a1-2)Gal(b1-4)[Fuc(a1-3)]GlcNAc(b1-3)Gal(b1-4)[Fuc(a1-3)]GlcNAc(b1-3)Gal(b1-4)[Fuc(a1-3)]GlcNAc", "method_in_brief": "as §1"}, "[13]": {"biological_target": "Fuc(a1-2)Gal(b1-4)[Fuc(a1-3)]GlcNAc(b1-3)GalNAc", "method_in_brief": "as §1"}, "[14]": {"biological_target": "Fuc(a1-2)Gal(b1-4)[Fuc(a1-3)]GlcNAc(b1-3)[Neu5Ac(a2-6)Gal(b1-4)GlcNAc(b1-6)]Gal(b1-4)Glc", "method_in_brief": "as §1"}, "[15]": {"biological_target": "Fuc(a1-2)Gal3S(b1-4)GlcNAc", "method_in_brief": "as §1"}, "[16]": {"biological_target": "Fuc(a1-2)Gal6S(b1-3)GlcNAc", "method_in_brief": "as §1"}, "[17]": {"biological_target": "Fuc(a1-2)Gal6S(b1-3)GlcNAc6S", "method_in_brief": "as §1"}, "[18]": {"biological_target": "Fuc(a1-2)Gal6S(b1-4)Glc", "method_in_brief": "as §1"}, "[19]": {"biological_target": "Fuc(a1-2)Gal6S(b1-4)Glc6S", "method_in_brief": "as §1"}, "[20]": {"biological_target": "Fuc(a1-2)[Gal(a1-3)]Gal", "method_in_brief": "as §1"}, "[21]": {"biological_target": "Fuc(a1-2)[Gal(a1-3)]Gal(b1-3)GalNAc", "method_in_brief": "as §1"}, "[22]": {"biological_target": "Fuc(a1-2)[Gal(a1-3)]Gal(b1-3)GalNAc(b1-3)Gal(a1-4)Gal(b1-4)Glc", "method_in_brief": "as §1"}, "[23]": {"biological_target": "Fuc(a1-2)[Gal(a1-3)]Gal(b1-3)GlcNAc", "method_in_brief": "as §1"}, "[24]": {"biological_target": "Fuc(a1-2)[Gal(a1-3)]Gal(b1-3)GlcNAc(b1-2)Man(a1-3)[Fuc(a1-2)[Gal(a1-3)]Gal(b1-3)GlcNAc(b1-2)Man(a1-6)]Man(b1-4)GlcNAc(b1-4)GlcNAc", "method_in_brief": "as §1"}, "[25]": {"biological_target": "Fuc(a1-2)[Gal(a1-3)]Gal(b1-3)GlcNAc(b1-2)Man(a1-3)[Fuc(a1-2)[Gal(a1-3)]Gal(b1-3)GlcNAc(b1-2)Man(a1-6)]Man(b1-4)GlcNAc(b1-4)[Fuc(a1-6)]GlcNAc", "method_in_brief": "as §1"}, "[26]": {"biological_target": "Fuc(a1-2)[Gal(a1-3)]Gal(b1-3)GlcNAc(b1-3)GalNAc", "method_in_brief": "as §1"}, "[27]": {"biological_target": "Fuc(a1-2)[Gal(a1-3)]Gal(b1-3)GlcNAc(b1-6)GalNAc", "method_in_brief": "as §1"}, "[28]": {"biological_target": "Fuc(a1-2)[Gal(a1-3)]Gal(b1-4)Glc", "method_in_brief": "as §1"}, "[29]": {"biological_target": "Fuc(a1-2)[Gal(a1-3)]Gal(b1-4)GlcNAc", "method_in_brief": "as §1"}, "[30]": {"biological_target": "Fuc(a1-2)[Gal(a1-3)]Gal(b1-4)GlcNAc(b1-2)Man", "method_in_brief": "as §1"}}, "note": "Some of the results follow."}
{"binder": "B1", "values": [{"measurement": "glycan array binding signal (z-score)", "setting": "[1]", "result": 0.55}, {"measurement": "glycan array binding signal (z-score)", "setting": "[2]", "result": 0.07}, {"measurement": "glycan array binding signal (z-score)", "setting": "[3]", "result": -0.317}, {"measurement": "glycan array binding signal (z-score)", "setting": "[4]", "result": -0.323}, {"measurement": "glycan array binding signal (z-score)", "setting": "[5]", "result": 0.468}, {"measurement": "glycan array binding signal (z-score)", "setting": "[6]", "result": -0.336}, {"measurement": "glycan array binding signal (z-score)", "setting": "[7]", "result": -0.269}, {"measurement": "glycan array binding signal (z-score)", "setting": "[8]", "result": -0.326}, {"measurement": "glycan array binding signal (z-score)", "setting": "[9]", "result": -0.324}, {"measurement": "glycan array binding signal (z-score)", "setting": "[10]", "result": -0.324}, {"measurement": "glycan array binding signal (z-score)", "setting": "[11]", "result": -0.327}, {"measurement": "glycan array binding signal (z-score)", "setting": "[12]", "result": -0.324}, {"measurement": "glycan array binding signal (z-score)", "setting": "[13]", "result": -0.326}, {"measurement": "glycan array binding signal (z-score)", "setting": "[14]", "result": -0.347}, {"measurement": "glycan array binding signal (z-score)", "setting": "[15]", "result": -0.325}, {"measurement": "glycan array binding signal (z-score)", "setting": "[16]", "result": -0.331}, {"measurement": "glycan array binding signal (z-score)", "setting": "[17]", "result": -0.22}, {"measurement": "glycan array binding signal (z-score)", "setting": "[18]", "result": -0.327}, {"measurement": "glycan array binding signal (z-score)", "setting": "[19]", "result": -0.338}, {"measurement": "glycan array binding signal (z-score)", "setting": "[20]", "result": -0.318}, {"measurement": "glycan array binding signal (z-score)", "setting": "[21]", "result": 0.513}, {"measurement": "glycan array binding signal (z-score)", "setting": "[22]", "result": 0.133}, {"measurement": "glycan array binding signal (z-score)", "setting": "[23]", "result": 2.36}, {"measurement": "glycan array binding signal (z-score)", "setting": "[24]", "result": 5.23}, {"measurement": "glycan array binding signal (z-score)", "setting": "[25]", "result": 1.59}, {"measurement": "glycan array binding signal (z-score)", "setting": "[26]", "result": 2.86}, {"measurement": "glycan array binding signal (z-score)", "setting": "[27]", "result": 3.09}, {"measurement": "glycan array binding signal (z-score)", "setting": "[28]", "result": 4.03}, {"measurement": "glycan array binding signal (z-score)", "setting": "[29]", "result": 2.16}, {"measurement": "glycan array binding signal (z-score)", "setting": "[30]", "result": 0.432}]}
